# The whole screen tested about 380,000 compounds, of which about 4,000 (1.1%) were called active. Inconclusive means that the source gave no clear call. Such entries were picked first, then a sample of the others. Calls come from the whole dose curve; as a rule, active = well fitted activation curve with a large enough effect; inconclusive = small, poorly fitted or top-dose-only effect; inactive = no such curve, though single readings can be large or run the other way. Where the call is inconclusive, the potency comes from a doubtful curve fit.
# Experiment: qHTS Assay to Identify Small Molecule Activators of BRCA1 Expression; note: nearly all actives have a fitted effect of over 80% in size
# Settings: MCF7-BRCA1-FFLuc reporter, luminescence, 48 h; activation: at 46.1 µM (top of the series), scaled: vehicle 0%, 10 µM genistein 100% unless noted
# Method in brief: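 Luminescence from a BRCA1-driven firefly luciferase in MCF7 cells was read after 48 h compound exposure at 37 C. Data normalized against DMSO and a 10microM genistein activation control, then curve-fitted across the titration.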
# Potency is the fitted concentration of half-maximal effect; tags give direction and shape of the fitted curve.
Compound,Potency,activation
CCCCc1ccc(NC(=O)CC(C)C)cc1,"inconclusive: 7.08 µM [activator, partial curve, poor fit]",–
Cc1ccc(N2C(=O)C3C4C=CC(CNC(=S)Nc5ccc(Cl)cc5)(O4)C3C2=O)cc1 (configuration not stated),–,inactive: -46.6%
Cc1ccc(-c2nc(NCc3ccco3)n(C(=O)c3ccco3)n2)cc1,"inconclusive: 7.08 µM [activator, partial curve, poor fit]",–
CCC1(C)Cc2c(sc3nc(SC)n(Cc4ccccc4)c(=O)c23)CO1 (configuration not stated),active: 12.6 µM,–
C/C(=N\OCc1cccc(C(=O)O)c1)c1ccc(Cl)cc1,–,inconclusive: -68.4% [activator]
Clc1ccc(-c2cnc3n2CCC3)cc1,"inconclusive: 22.4 µM [activator, single point]",–
COc1ccc(C(=O)Nc2ccc3ccccc3c2)cc1OC,active: 5.62 µM,–
Cc1onc(-c2c(F)cccc2Cl)c1C(=O)OCC(=O)NC(=O)NCC(C)C,–,inactive: -13.2%
Cc1ccnc(Nc2nc(-c3ccccc3)cs2)c1,"inconclusive: 0.631 µM [activator, full curve, poor fit]",–
CCn1c(C)nc2cc(C(=O)N/N=C(\C)c3ccccc3O)ccc21,"inconclusive: 1.26 µM [activator, partial curve, poor fit]",–
COc1ccccc1-c1noc(-c2cccs2)n1,"inconclusive: 31.6 µM [activator, single point]",–
CC1CCN(c2nc3ccc(C(=O)N4CCN(c5ccccc5)CC4)cc3s2)CC1,"inconclusive: 1.78 µM [activator, full curve, poor fit]",–
COc1ccccc1-c1sc2cc3c(cc2c1C#CC1(O)CCCCC1)OCO3,–,inactive: 0%
CCc1ccccc1Nc1nc(N)nc(COC(=O)c2cccn2C)n1,"inconclusive: 14.1 µM [activator, single point]",–
CCN(CC)C(=O)CSc1nnc(-c2cccc(OC)c2)o1,active: 11.2 µM,–
Cn1ccsc1=NC(=O)c1cccc(OC(F)F)c1,active: 8.91 µM,–
CN(C)c1ccc(NC(=O)Nc2ccc3c(c2)nnn3C)cc1,"inconclusive: 3.55 µM [activator, partial curve, poor fit]",–
O=C(Nc1ccc2c(c1)CCC2)c1cc(F)cc(F)c1,active: 3.16 µM,–
CCC(C)Cn1c(C)nc2ccccc21 (configuration not stated),–,inactive: -14.8%
Cc1cccc(NC(=O)c2ccc3nccnc3c2)n1,active: 12.6 µM,–
COc1cc(/C=N/O)ccc1OCc1ccc([N+](=O)[O-])cc1,"inconclusive: 2.51 µM [activator, full curve, poor fit]",–
Cn1c(-c2cccc3ccccc23)n[nH]c1=S,–,inactive: -12.7%
COc1ccc(-n2ncc3c(NCCCn4ccnc4)ncnc32)cc1,"inconclusive: 3.55 µM [activator, partial curve, poor fit]",–
CCc1nnc(NC(=O)CSc2nc3c(cc2C#N)CCC3)s1,"inconclusive: 2 µM [activator, full curve, poor fit]",–

Compound,Potency,activation
COc1cc(/C=N/N2CCOCC2)ccc1OCc1ccc(Cl)cc1,active: 2.24 µM,–
CCCOc1cccc(C(=O)Nc2cc(NC(=O)c3ccco3)ccc2OC)c1,–,inactive: -53.5%
C/C(CC(=O)Nc1cc(C)ccn1)=N\NC(=O)C(=O)Nc1cccc(C)c1,"inconclusive: 35.5 µM [activator, single point]",–
CCOC(=O)c1ccc2c(c1)NCc1cccc(OC)c1O2,"inconclusive: 3.55 µM [activator, partial curve, poor fit]",–
CCc1ccc(-c2cc(C(=O)N/N=C/c3ccco3)[nH]n2)cc1,–,inactive: 16.8%
CCOc1ccc(NC(=O)Nc2ccc(Br)cn2)cc1,"inconclusive: 11.2 µM [activator, partial curve, poor fit]",–
Cc1ccccc1C(=O)Nc1cc(S(=O)(=O)N2CCOCC2)ccc1N1CCN(C)CC1,–,inactive: 6.99%
Fc1cc(F)c2nc(N3CCCCC3)sc2c1,active: 12.6 µM,–
Cc1ccc(OCc2ccc([N+](=O)[O-])cc2)c([N+](=O)[O-])n1,active: 5.01 µM,–
CCc1nnc(NC(=O)Nc2ccc(OC)cc2)s1,"inconclusive: 14.1 µM [activator, partial curve, poor fit]",–
Cc1cccc(N2CCN(C(=O)CS(=O)(=O)Cc3nc(-c4ccccc4C)oc3C)CC2C)c1 (configuration not stated),–,inactive: -38.6%
O=C(/C=C/c1cccc(Cl)c1)NCCc1ccccc1,"inconclusive: 15.8 µM [activator, single point]",–
CCOc1ccc(C(=O)NC(Cc2ccccc2)C(=O)OC)cc1 (configuration not stated),"inconclusive: 14.1 µM [activator, partial curve, poor fit]",–
O=C(CSc1nc2ccccc2[nH]1)c1ccccc1F,active: 2 µM,–
O=[N+]([O-])c1ccc(-c2cn3c(n2)CCC3)cc1,"inconclusive: 11.2 µM [activator, partial curve, poor fit]",–
COc1ccc(-c2cc(=O)c3c(O)cc(O)cc3o2)cc1,"inconclusive: 17.8 µM [activator, partial curve, poor fit]",–
CCC(c1nnnn1-c1ccc2c(c1)OCCO2)N1CCN(c2cc(C)ccc2C)CC1 (configuration not stated),–,inactive: -38%
NC(=O)c1ccc(-c2ncc(-c3ccccc3)o2)cc1,–,inconclusive: -52.8% [activator]
O=C(NCCOc1ccccc1F)c1ccc2c(=O)n3c(nc2c1)CCC3,"inconclusive: 0.794 µM [activator, full curve, poor fit]",–
N/C(Cc1cccs1)=N\OC(=O)COc1ccc(Br)cc1Cl,"inconclusive: 14.1 µM [activator, partial curve, poor fit]",–
CC(C)(C)C(=O)Nc1ccc(C(=O)OC2CCCCC2)cc1,"inconclusive: 2.82 µM [activator, full curve, poor fit]",–
O=C(Nc1ccc(Nc2ccccc2)cc1)c1ccc(Br)o1,"inconclusive: 11.2 µM [activator, partial curve, poor fit]",–
O=C(Nc1nnc(C2CC2)s1)c1cc2ccccc2o1,"inconclusive: 3.98 µM [activator, full curve, poor fit]",–
